Measured values published in patent US12364706B2, “Modified aminoglycoside compounds and uses thereof in disabling bacterial ribosome” (Technion Research & Development Foundation Limited, priority 2018, dated 2025).
Where “and” joins values, the source holds several entries; their conditions need not be identical. Equal values may be shown once.

System: A-site oligonucleotide model rRNA
Settings: 24 hours, pH 8, 37° C.; only nonspecific cleavage

| Structure (SMILES) | concentration at which RNA cleavage was observed |
| --- | --- |
| NCCNCC(=O)N[C@H]1[C@H](O)[C@@H](N)[C@@H](O[C@H]2[C@H](O[C@@H]3O[C@H](CO)[C@@H](O[C@H]4O[C@@H](CN)[C@@H](O)[C@H](O)[C@H]4N)[C@H]3O)[C@@H](O)[C@H](N)C[C@@H]2N)O[C@@H]1CN [Compound 6, 4′-(2-(aminoethylamino)acetamido)-4′-deoxy-neomycin] | 10 mm |
| NCCN [ethylenediamine] | 100 mm and 200 mm |
